From PMC4336329 (PLoS ONE, 2015)
The campaign covered roughly 310,000 compounds. About 14,000 (4.5%) showed an effect of 50% or more. Effects have a minus sign here. Some of the results follow.

target: human ether-à-go-go-related gene (hERG) potassium channel (human, UniProt Q12809); assay: primary screen, population patch clamp on CHO cells stably expressing hERG
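Also: peak tail current of the secondary pulse compared with the same well before compound.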

human ether-à-go-go-related gene (hERG) potassium channel, sequence (Q12809 whole entry, looked up): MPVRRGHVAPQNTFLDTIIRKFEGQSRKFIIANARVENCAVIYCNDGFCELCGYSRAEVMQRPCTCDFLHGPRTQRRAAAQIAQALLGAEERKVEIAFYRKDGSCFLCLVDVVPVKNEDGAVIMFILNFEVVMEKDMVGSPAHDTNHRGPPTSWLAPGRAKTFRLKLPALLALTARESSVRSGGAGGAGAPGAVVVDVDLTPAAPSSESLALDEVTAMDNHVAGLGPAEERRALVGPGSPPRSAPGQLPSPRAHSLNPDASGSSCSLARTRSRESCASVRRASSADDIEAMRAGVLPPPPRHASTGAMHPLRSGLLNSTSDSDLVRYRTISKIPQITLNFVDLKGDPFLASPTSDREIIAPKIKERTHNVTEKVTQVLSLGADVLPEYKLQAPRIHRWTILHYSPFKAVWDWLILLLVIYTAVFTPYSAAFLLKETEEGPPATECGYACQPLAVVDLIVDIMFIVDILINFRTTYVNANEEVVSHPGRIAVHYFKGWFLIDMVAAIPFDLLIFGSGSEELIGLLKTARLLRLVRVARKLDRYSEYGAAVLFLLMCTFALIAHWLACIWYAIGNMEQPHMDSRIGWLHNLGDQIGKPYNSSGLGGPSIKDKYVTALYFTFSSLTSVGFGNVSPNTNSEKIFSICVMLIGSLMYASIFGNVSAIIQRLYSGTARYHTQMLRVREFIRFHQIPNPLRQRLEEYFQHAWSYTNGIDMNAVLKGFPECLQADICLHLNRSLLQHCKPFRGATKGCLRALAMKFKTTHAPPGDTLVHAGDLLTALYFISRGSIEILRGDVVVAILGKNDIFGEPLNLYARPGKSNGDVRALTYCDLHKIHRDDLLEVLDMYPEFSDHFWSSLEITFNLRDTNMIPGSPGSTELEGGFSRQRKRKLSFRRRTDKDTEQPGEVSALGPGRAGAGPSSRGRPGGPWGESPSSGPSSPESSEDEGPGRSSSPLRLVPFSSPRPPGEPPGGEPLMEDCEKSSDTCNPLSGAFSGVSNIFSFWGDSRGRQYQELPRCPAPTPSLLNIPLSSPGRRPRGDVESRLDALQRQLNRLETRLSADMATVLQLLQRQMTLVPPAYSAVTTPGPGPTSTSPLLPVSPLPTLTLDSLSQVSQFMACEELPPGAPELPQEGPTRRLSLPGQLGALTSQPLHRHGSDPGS

Q: Which “hERG current change (%, negative = inhibition) at 10uM” value does the source give for NC(=O)c1cccnc1 here?
A: 18.8%

Q: How did the “hERG current change (%, negative = inhibition) at 10uM” value turn out when COc1ccc(Cl)cc1N(C(C)C(=O)O)S(C)(=O)=O (stereo not shown) was run?
A: 8.27%

Q: For COc1cc(F)cc(C2=CC(=O)C[C@H](c3ccc(F)cc3)C2)c1, which “hERG current change (%, negative = inhibition) at 10uM” value is on record?
A: 2.82%

Q: How did the “hERG current change (%, negative = inhibition) at 10uM” value turn out when COc1ccc(NC(=O)CN2CCC(C(=O)c3ccc(C)cc3)CC2)c(OC)c1 was run?
A: -29.8%

Q: With CN(C)CCCNC(=O)/C=C/c1ccc(OCc2c(F)cccc2Cl)cc1 as the compound, how does the “hERG current change (%, negative = inhibition) at 10uM” value read?
A: -67%

Q: COc1ccc(S(=O)(=O)N(Cc2ccccc2)Cc2nc(-c3ccccc3)no2)cc1 was tested. Which “hERG current change (%, negative = inhibition) at 10uM” value did it give?
A: -16.9%

Q: Which “hERG current change (%, negative = inhibition) at 10uM” value does the source give for CCc1noc(C)c1C(=O)N1CCCC(C(=O)c2ccc(OC)c(F)c2)C1 (stereo not shown) here?
A: -24.9%

Q: With O=C(Nc1nccs1)c1ccc(S(=O)(=O)NCc2cccs2)cc1 as the compound, how does the “hERG current change (%, negative = inhibition) at 10uM” value read?
A: -6.5%

Q: Which “hERG current change (%, negative = inhibition) at 10uM” value does the source give for O=C(CNC(=O)c1cccc(Cl)c1)N/N=C/c1cccnc1 here?
A: 14.9%

Q: For CCC(C)(C)NC(=O)c1ccc2c(c1)N(CC(=O)OC)C(=O)C(C)(C)O2, which “hERG current change (%, negative = inhibition) at 10uM” value is on record?
A: -1.23%

Q: Which “hERG current change (%, negative = inhibition) at 10uM” value does the source give for Cn1cccc1/C=C1\CCC/C(=C\c2cccn2C)C1=O here?
A: -2.96%

Q: With O=C(Nc1ccc(Cl)cc1C(=O)Nc1ccncc1)c1ccco1 as the compound, how does the “hERG current change (%, negative = inhibition) at 10uM” value read?
A: -26.1%

Q: How did the “hERG current change (%, negative = inhibition) at 10uM” value turn out when O=C(CCNc1n[nH]c(=O)[nH]c1=O)N/N=C\c1ccc(Br)cc1 was run?
A: -3.55%

Q: With Cc1nc(CN(C)C(=O)CC2C(=O)NCCN2Cc2ccc(F)cc2)cs1 (stereo not shown) as the compound, how does the “hERG current change (%, negative = inhibition) at 10uM” value read?
A: 13.3%

Q: With CC(C)Cc1nnc(NC(=O)C2CCN(C(=O)c3ccc(F)cc3)CC2)s1 as the compound, how does the “hERG current change (%, negative = inhibition) at 10uM” value read?
A: -17.5%

Q: Which “hERG current change (%, negative = inhibition) at 10uM” value does the source give for O=C(C1=C(O)C(=O)N(CCN2CCOCC2)C1c1ccccn1)c1cccs1 (stereo not shown) here?
A: 7.34%

Q: For CC(C)CC(c1nnnn1C(C)C)N1CCN(c2cccc(Cl)c2)CC1 (stereo not shown), which “hERG current change (%, negative = inhibition) at 10uM” value is on record?
A: 0.685%

Q: With CCOC(=O)CC(=O)Nc1ccc(C)cc1 as the compound, how does the “hERG current change (%, negative = inhibition) at 10uM” value read?
A: -1.65%

Q: Which “hERG current change (%, negative = inhibition) at 10uM” value does the source give for O=C(Nc1cccc([N+](=O)[O-])c1)c1cc(S(=O)(=O)Nc2ccccn2)ccc1Cl here?
A: -15%

Q: O=C(CN1CCN(c2ccccc2F)CC1)N1N=CCC1c1ccccc1 (stereo not shown) was tested. Which “hERG current change (%, negative = inhibition) at 10uM” value did it give?
A: -5.83%

Q: Which “hERG current change (%, negative = inhibition) at 10uM” value does the source give for Cn1c(=O)c2c(nc(NCCNC(=O)c3ccco3)n2Cc2ccccc2)n(C)c1=O here?
A: 1.73%

Q: With COc1ccc(S(=O)(=O)N2CCOCC2)cc1NC(=O)c1cccs1 as the compound, how does the “hERG current change (%, negative = inhibition) at 10uM” value read?
A: -7.06%

Q: COCCn1c(SC(C(=O)Nc2cc(C)ccc2OC)c2ccccc2)nnc1-c1ccc(Cl)cc1 (stereo not shown) was tested. Which “hERG current change (%, negative = inhibition) at 10uM” value did it give?
A: -41.3%

Q: C#CC[N+]1(CC#Cc2ccccc2)CCOCC1.[I-] was tested. Which “hERG current change (%, negative = inhibition) at 10uM” value did it give?
A: 3.54%

Q: Which “hERG current change (%, negative = inhibition) at 10uM” value does the source give for CC(C)=NOC(=O)c1ccc(-c2ccccc2)cc1 here?
A: 2.26%

Q: With O=C(NCc1ccccc1)/C(=N\O)c1ccccc1 as the compound, how does the “hERG current change (%, negative = inhibition) at 10uM” value read?
A: -7.47%

Q: How did the “hERG current change (%, negative = inhibition) at 10uM” value turn out when Cc1ccc(OCc2cc(C(=O)NC(C)Cc3cccc(C)n3)no2)cn1 (stereo not shown) was run?
A: 17.8%

Q: How did the “hERG current change (%, negative = inhibition) at 10uM” value turn out when CCN(CC)S(=O)(=O)c1cc(NC(=O)CSc2nc3c(cc2C#N)C(=O)CC(C)(C)C3)ccc1C was run?
A: 4.51%

Q: How did the “hERG current change (%, negative = inhibition) at 10uM” value turn out when O=C(NCCN1C(=O)S/C(=C\c2ccccc2Cl)C1=O)C1=COCCO1 was run?
A: -5.53%

Q: Cc1ccc(NS(=O)(=O)c2ccc(-c3coc(C)n3)cc2)c(C)c1 was tested. Which “hERG current change (%, negative = inhibition) at 10uM” value did it give?
A: 15.6%

Q: For O=c1c2ccccc2c(-c2n[nH]c(=S)o2)nn1Cc1ccccc1, which “hERG current change (%, negative = inhibition) at 10uM” value is on record?
A: 19.4%

Q: How did the “hERG current change (%, negative = inhibition) at 10uM” value turn out when Cc1cccc(NC(=O)Cn2cnc3c(cnn3-c3ccc(F)cc3)c2=O)c1C was run?
A: 2.99%

Q: Which “hERG current change (%, negative = inhibition) at 10uM” value does the source give for CC(C)(C)OC(=O)Nc1ccc([C@@H](NC(=O)OC(C)(C)C)C(=O)OC(C)(C)C)cc1 here?
A: 18.3%

Q: Which “hERG current change (%, negative = inhibition) at 10uM” value does the source give for Br.CC(=O)Nc1nc(C)c(-c2csc(Nc3ccc(O)cc3)n2)s1 here?
A: -13.9%

Q: COc1ccc(N2CCN(C(=O)Cn3nnc(-c4ccc(OC)c(OC)c4)n3)CC2)cc1 was tested. Which “hERG current change (%, negative = inhibition) at 10uM” value did it give?
A: 4.33%

Q: With Cc1cccc(OCC(=O)NCc2nc(-c3ccccc3)no2)c1 as the compound, how does the “hERG current change (%, negative = inhibition) at 10uM” value read?
A: 14.2%

Q: Which “hERG current change (%, negative = inhibition) at 10uM” value does the source give for c1c2c(cc3sc(N4CCCCC4)nc13)OCCO2 here?
A: -8.44%

Q: Which “hERG current change (%, negative = inhibition) at 10uM” value does the source give for Cc1ccc(OCC(=O)Nc2nnc(S(=O)(=O)N3CCCCCC3)s2)cc1C here?
A: 9.72%

Q: How did the “hERG current change (%, negative = inhibition) at 10uM” value turn out when Cc1ccc(OCC(O)Cn2c(=N)n(Cc3ccccc3)c3ccccc32)cc1.Cl (stereo not shown) was run?
A: -81.6%

Q: With CNC(=S)N/N=C/c1cccc(OCc2ccccc2F)c1 as the compound, how does the “hERG current change (%, negative = inhibition) at 10uM” value read?
A: 18.3%

Q: CCc1ccc(CN2CCCC(C(=O)Nc3ccccc3-c3ccc(OC)cc3)C2)o1 (stereo not shown) was tested. Which “hERG current change (%, negative = inhibition) at 10uM” value did it give?
A: -33.9%

Q: Cc1cc(C(=O)CN2C(=O)C(=O)N(Cc3ccccc3)C2=O)c(C)n1-c1ccccc1F was tested. Which “hERG current change (%, negative = inhibition) at 10uM” value did it give?
A: 15.1%

Q: For O=C(NCc1ccc2c(c1)OCO2)c1ccc2c(c1)OCO2, which “hERG current change (%, negative = inhibition) at 10uM” value is on record?
A: 8.07%
